Data from PubChem BioAssay AID485281 (National Center for Advancing Translational Sciences (NCATS), 2010).
In all, about 350,000 compounds went through this assay and about 260 (0.074%) were called active. Inconclusive results, whose numbers are uncertain, are shown with a selection of clear calls. Calls come from the whole dose curve; as a rule, active = well fitted inhibition curve with a large enough effect; inconclusive = small, poorly fitted or top-dose-only effect; inactive = no such curve, though single readings can be large or run the other way. Where the call is inconclusive, the potency comes from a doubtful curve fit.

Target: Ferritin light chain (Equus caballus) (UniProt P02791)
Sequence of UniProt P02791 (P02791 whole entry, looked up): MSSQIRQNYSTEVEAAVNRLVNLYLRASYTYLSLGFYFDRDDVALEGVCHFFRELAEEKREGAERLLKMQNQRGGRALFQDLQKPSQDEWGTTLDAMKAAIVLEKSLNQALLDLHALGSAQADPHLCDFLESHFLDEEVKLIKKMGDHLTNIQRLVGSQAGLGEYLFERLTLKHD
Experiment: qHTS Assay for Identification of Novel General Anesthetics; note: nearly all actives have a fitted effect of over 20% in size
Settings: apoferritin/1-aminoanthracene competitive binding, fluorescence; series mostly up to 77.5 µM
Procedure, shortened: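 In PBS, apoferritin at 10 uM is loaded with 1-AMA from a 50% saturated solution. After 10 min of compound exposure at ambient temperature, reduced 535 nm fluorescence indicates probe displacement.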
Potency is the fitted concentration of half-maximal effect; tags give direction and shape of the fitted curve.

SMILES	Potency
O=C(/C=C/c1ccc(O)c(O)c1)c1ccc(S(=O)(=O)N2CCCCCC2)cc1	inconclusive: 56.2 µM [inhibitor, single point]
Clc1ccc(/C=N/Nc2ncnc3ccccc23)cc1Cl	inconclusive: 31.6 µM [inhibitor, partial curve]
CCCCn1c(SC(C)C(=O)c2ccc(OC)cc2)nc2cc(S(N)(=O)=O)ccc21 (stereo unspecified)	inconclusive: 35.5 µM [inhibitor, partial curve]
c1ccc(-c2csc(N3CCSCC3)n2)cc1	inconclusive: 3.55 µM [inhibitor, full curve]
O=C(COC(=O)CC12CC3CC(CC(Br)(C3)C1)C2)NC(=O)NCc1ccco1	inconclusive: 15.8 µM [inhibitor, partial curve]
Cc1cc(CN(C)C(=O)c2cc(COc3ccc(F)cc3Cl)on2)n[nH]1	inconclusive: 22.4 µM [inhibitor, partial curve]
Cc1ccc(NC(=S)NC2CC3CCCC(C2)N3Cc2cccs2)cc1 (stereo unspecified)	inconclusive: 10 µM [inhibitor, full curve, poor fit]
Cc1nc(C)c(-c2ccc(SCC(=O)Nc3cccc(Cl)c3)nn2)s1	inconclusive: 25.1 µM [inhibitor, partial curve]
Cc1noc(-c2ccc(N3CCCCC3)c([N+](=O)[O-])c2)n1	inconclusive: 0.891 µM [inhibitor, full curve, poor fit]
C=CCN1C(=O)CN=C1Nc1ccc(F)cc1	inactive
O=[N+]([O-])c1ccc(C2CN=C(Nc3ccccc3)S2)cc1 (stereo unspecified)	inconclusive: 25.1 µM [inhibitor, partial curve]
CC(=O)Nc1ccc(S(=O)(=O)N2CCN(c3cc4c(cc3[N+](=O)[O-])n(C)c(=O)n4C)CC2)cc1	inconclusive: 22.4 µM [inhibitor, partial curve]
N#Cc1cccnc1Nc1ccc(Cl)cc1	inconclusive: 25.1 µM [inhibitor, single point]
CCCCC1(C)Cc2ccccc2C(=S)N1 (stereo unspecified)	inconclusive: 10 µM [inhibitor, partial curve]
COc1ccc(OCc2cc(C(=O)N(C)Cc3cnccn3)no2)c(Cl)c1	inactive
CC1CCCN(C(=S)Nc2ccc(Nc3ccccc3)cc2)C1 (stereo unspecified)	inconclusive: 15.8 µM [inhibitor, partial curve]
CC(C)NC(=S)N/N=C/C1=CCC2CC1C2(C)C (stereo unspecified)	inactive
CC(=O)c1cccc(NC(=O)N2CCC(c3ccc(C)cc3)C2)c1 (stereo unspecified)	inconclusive: 31.6 µM [inhibitor, partial curve]
O=C(C1CCCC1)N1CCN=C1SCc1cccc([N+](=O)[O-])c1	inconclusive: 28.2 µM [inhibitor, partial curve]
Cc1ccc(NS(=O)(=O)c2c(C)ccc3nsnc23)c([N+](=O)[O-])c1	inconclusive: 28.2 µM [inhibitor, partial curve]
COc1ccc(/C=N/NC(=O)c2cc(C34CC5CC(CC(C5)C3)C4)[nH]n2)cc1O	inconclusive: 20 µM [inhibitor, partial curve, poor fit]

SMILES	Potency
CCOC(=O)c1c(C=O)c(C)n(Cc2ccc(Cl)cc2)c1C	inconclusive: 25.1 µM [inhibitor, partial curve]
O=C(CSc1nnc(SCc2cccc3ccccc23)s1)c1ccc2c(c1)OCO2	inconclusive: 17.8 µM [inhibitor, partial curve]
Cc1cccc(N2CCN(C(=O)c3cccc(N4C(=O)C5CC=CC(C)C5C4=O)c3)CC2)c1C (stereo unspecified)	inconclusive: 12.6 µM [inhibitor, partial curve]
CC(C)Cc1nc(N2CCN(C(=O)C(C)C)CC2)c(C#N)c2c1CCC2	inactive
Cc1sc(C2C(C#N)=C(N)N(c3cccc(Cl)c3)C3=C2C(=O)CCC3)cc1CN1CCOCC1 (stereo unspecified)	inconclusive: 39.8 µM [inhibitor, partial curve]
O=C(Nc1ccccc1)C1CC2CCC1C2 (stereo unspecified)	inconclusive: 14.1 µM [inhibitor, partial curve]
COc1ccc(S(=O)(=O)N(C)CC(=O)NCc2ccco2)cc1OC	inactive
c1ccc(COc2cccc(CNCc3ccccn3)c2)cc1	inconclusive: 35.5 µM [inhibitor, single point]
Cc1cc(C)cc(C(=O)Nc2ccc(N3CCCC3)cc2)c1	inconclusive: 31.6 µM [inhibitor, partial curve]
Cc1[nH]n(-c2ccccc2)c(=O)c1CCOC(=O)c1cccc(C(F)(F)F)c1	inconclusive: 31.6 µM [inhibitor, partial curve]
Cc1ccc(C(=S)N2CCCCCC2)cc1	inconclusive: 17.8 µM [inhibitor, partial curve]
CC1CCCC1/C(=N/O)c1ccccc1 (stereo unspecified)	inconclusive: 50.1 µM [inhibitor, single point]
CC(C)n1c(=S)[nH]c2ccccc2c1=O	inconclusive: 35.5 µM [inhibitor, partial curve]
CCOc1ccc(NC(=O)C2CC(=O)NC(N3CCc4ccccc43)=N2)cc1 (stereo unspecified)	inconclusive: 1.26 µM [inhibitor, full curve]
N/C(=N\OC(=O)Cc1ccc(-c2ccccc2)cc1)c1cccc([N+](=O)[O-])c1	inconclusive: 22.4 µM [inhibitor, partial curve]
CCOC(=O)N(C)OC(=O)Nc1ccc(Cl)c(Cl)c1	inconclusive: 25.1 µM [inhibitor, partial curve]
O=C1C2C3C=CC(C3)C2C(=O)N1c1ccc(Cc2ccncc2)cc1 (stereo unspecified)	inconclusive: 25.1 µM [inhibitor, partial curve]
Cc1cc(C2=CC(C)(c3cc(C)oc3C)Nc3nc(C(F)(F)F)nn32)c(C)o1 (stereo unspecified)	inconclusive: 25.1 µM [inhibitor, partial curve]
Cc1cc(C)cc(NC(=O)CSc2nccn2Cc2ccco2)c1	inconclusive: 50.1 µM [inhibitor, single point]
CS(=O)(=O)c1cccc(NC(=O)c2ccc(Cl)c(Cl)c2)c1	inconclusive: 35.5 µM [inhibitor, partial curve]
